In the supplement of paper PMC10126150:
Sequences with one replicate were seen in a single cluster, so their values are uncertain.

System: ATP
Assay: switch fluorescence ratio, 500 uM ATP over buffer (Cy3 cluster intensity, sum of 5 cycles each) (fold (ratio)); higher = stronger signal-on switching upon ATP binding; sequences stand for … in TCGTCGGCAGCGTCAGATGTGTATAAGAGACAGTTTTTTTTTTTTTTTTTTTTTTTTT…TC
Settings: aptamer strand: ATP DNA aptamer (quencher-CACCTGGGGGAGTATTGCGGAGGAAGG + anchor), 100 nM annealed; ATP concentration: 500 uM; one replicate
Summary of the method: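 Per cluster, summed Cy3 intensity from the target cycles was divided by that from the buffer cycles to give the fluorescence ratio, then averaged per switch-domain sequence. Clusters outside 100-1000 RFU were excluded. The Cy3-labelled switching-strand clusters, on a modified Illumina MiSeq flow-cell, were annealed to 100 nM quencher-labelled ATP aptamer and imaged in selection buffer, then after 15 min with 500 uM ATP at 22 °C, for five cycles with NaOH stripping and re-annealing between them.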
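Also: ATP exposure 15 min at 22 °C before imaging.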

Sequence | switch fluorescence ratio
TTTTCGCGAA | 1.05
TCGTCAGG | 1
GGATTGTAAC | 0.972
GTGAAGGTCT | 1.02
TCCATAAGAC | 1.55
ATTTCCTTGG | 1.01
TGCATTATAT | 0.974
AGCGCACACG | 1.08
GTTCGAATGT | 0.961
TGCCAGTCGA | 0.969
TGTCTCAGCT | 1
TCTATAACTT | 1
ATCATCCAAC | 1.05
GAGATCGGGA | 1.01
CGGCATAATT | 1.02
GAAATGGACG | 1.08
TAAAAGTCGA | 1.02
CTATAAATTT | 1.04
GAGTAAGACC | 1.05
TGCGGCTGG | 0.99
GAGATCTTAG | 0.994
GCCTAGTTAC | 1.09
GCGCCAGTAC | 4.02

Sequence | switch fluorescence ratio
TGGTCATCAT | 0.96
TTTGTCCAGA | 0.991
GGGCAATCT | 1.37
TCCGAGAGGG | 1.02
CACGATAGAA | 1.09
TATGGACCAC | 1.03
TGATTGGTTG | 0.981
CCTTACACTG | 1.13
AAAAGGCCAC | 0.982
AGGAGGCTCA | 0.993
TCAAATCGCT | 1.01
TCGGCGCAC | 3.04
TCAGTGTGAA | 0.99
ATACTCCCAG | 1.49
ATCAATGCTC | 1.71
ATCCGTACGA | 1.13
ATCGTTCTTA | 0.949
CTATTAAAAG | 1.11
TTTCAAAAGC | 0.993
TTAAGAACAT | 0.964
TATTACCGT | 1.05
AACGGAGGTG | 1.02
AAGGATTGCT | 0.961

Sequence | switch fluorescence ratio
CGAAATCGTA | 1.05
GCCGAATGGC | 1.03
AGAAAGGGG | 1.04
TAAGGTCTAC | 0.995
GCCTTCGGCC | 0.996
CATTTCTCGA | 1.03
GCCGAAGTAA | 2.98
CAGCCAAGCT | 0.973
AGAAAGAAGG | 1.03
GAACGGTACA | 1.46
GCAGCCTAGG | 1.01
TGAAACGAGG | 0.995
AGACTTTAGA | 1.06
AGGGCTACTG | 0.926
GATCAATCCA | 0.966
GCACCTGAAG | 1.06
TAATAAGATA | 0.973
TCCTCTCGGA | 1.41
TCCAGACGGG | 1.01
TGGGGCTCAC | 1.03
CGCTACGTAA | 2.09
CGATTTCCGG | 1.02
GACTGAGGTT | 1.03

Sequence | switch fluorescence ratio
ATTTGTTTGT | 0.994
GATGTAGAGT | 0.993
CACAATGTAT | 1.05
CAGTGTGCA | 1.11
TAAAGCTCG | 1.04
CTAAGGGTTT | 1.01
AGCGGGGGGC | 1.01
AATGTACTGA | 1.08
TCGTGAAGGC | 1.05
AATGGGGAGG | 0.988
ATAACTGTTT | 0.963
TCAAGGTTGG | 1.01
CGCTCCTAGG | 1.36
TTTGGCGAGG | 0.943
GCGATCATTA | 1.03
GATCCAGGCA | 0.989
CGGTTTTTCG | 0.992
CCTGGATTGG | 0.968
AATACATCCC | 1.13
TTAAGTGTAT | 0.994
CTCGCCTTTT | 1.07
TGCGGTTGTG | 0.955
AACAGCTATA | 1.07

Sequence | switch fluorescence ratio
TTCGATAGGG | 0.989
AGGGACATAA | 1.08
AAACGCTGTG | 1.04
AACGTCGCGA | 1.04
TTATGATAT | 1.03
TTCCCATAGG | 1.14
GCCAAAGAGG | 1.02
CTTAAGGCTA | 0.999
TGGAGTAGAG | 1.04
CGCGTTGCGT | 0.973
TGACTGCGTG | 0.945
CAAGCCGTGG | 0.993
CGTGCCGAAT | 0.992
TGACTTCAGG | 1.01
TGATTACGCT | 0.968
AAATTATGTA | 0.948
GCTGGACCAC | 1.05
GTGAGCAGAG | 1.06
AAAGGCCGTT | 1
ACGAGTTTGC | 0.985
CTGTAATGAA | 0.978
GAGCCAAAAG | 0.993
ACTACGGGTC | 1.13

Sequence | switch fluorescence ratio
AACGTGGGAA | 1.01
GAACGTCTGA | 1.05
GTAGAAGGAG | 1.02
TGACTAAGAC | 1.1
ATCTAAAATG | 1.02
TGTGCGCCTT | 0.949
GAACATGTTT | 1.03
TTTGGAATCC | 0.991
ACGTGCACCA | 1.18
TTTCCAAGGG | 1.02
CTAGGAAGGG | 0.975
TTGGTATCTA | 1.01
CCAGGTCTGG | 0.981
ATGCCGGACA | 1.03
GACGTAAGGA | 1.06
AGCTCGGCGG | 0.991
CTAAAACGGG | 1.06
GATTGATTAT | 0.991
GGCTGGAGAC | 1.01
AGTCTACCAG | 1.02
CTACCTCTGT | 1.05
GATTTAGAAG | 0.998
GGCAGACGGC | 0.999

Sequence | switch fluorescence ratio
AATGCGCCA | 1.05
TATGTAACAT | 1.36
TTTATCGATG | 0.967
ACCTGTCGTT | 0.98
CTATTTTA | 1.1
CTGTCTGGGA | 0.98
TAAAGGCTGA | 1.05
GCTCCTTAAT | 1.19
GGACGCCGGT | 0.949
CAGACAGACA | 1.07
GGCTTTGTGC | 0.979
ACTTTAGTCA | 1.02
TGGGGGTACC | 0.978
TCTAAAAACC | 0.97
TGGGACCAGT | 0.956
ATTCGAGCGG | 1.02
GCGTGCGATA | 1.04
TAGACTTCTG | 1.02
AGAGTTGTCA | 1.06
